Assay results reported in patent publication US20230139700A1 (BIO THERA SOLUTIONS, published 2023).

How the values were obtained:
human OX40 on cells [1] = target: T1, human OX40 on cells (human, UniProt P43489 29-277); assay: cell-based or functional assay
T1 sequence (looked up): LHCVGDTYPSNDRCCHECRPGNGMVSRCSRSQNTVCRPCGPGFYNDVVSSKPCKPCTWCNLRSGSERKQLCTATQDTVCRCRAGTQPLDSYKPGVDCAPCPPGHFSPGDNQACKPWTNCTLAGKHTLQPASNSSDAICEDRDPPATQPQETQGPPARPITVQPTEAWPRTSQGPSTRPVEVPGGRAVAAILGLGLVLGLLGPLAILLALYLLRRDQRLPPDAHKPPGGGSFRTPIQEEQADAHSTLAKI

hOX40-his = target: T2, hOX40-his (human, UniProt P43489 29-216); assay: BIACORE, antibody on the probe, 20 nM OX40-his
T2 construct: range 1-216; Made in HEK293; The stated range starts at residue 1 (holds the signal peptide of the entry); no cleavage site stated; not shown: his tag
T2 sequence (looked up): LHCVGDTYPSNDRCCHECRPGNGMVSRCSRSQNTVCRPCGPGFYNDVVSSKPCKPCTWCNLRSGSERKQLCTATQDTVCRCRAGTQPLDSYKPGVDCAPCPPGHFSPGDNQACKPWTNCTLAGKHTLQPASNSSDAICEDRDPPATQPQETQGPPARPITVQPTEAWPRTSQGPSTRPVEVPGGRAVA
Text: Table 10 illustrates the CDRs of eight full antibodies containing these amino acid mutations, and the rest of the sequences are the same as those of antibody-F23-32K. […] The sequences of the anti-OX40 antibody (antibody M) are shown in Table 12; wherein, the expression cells used for the antibodies above (including antibody M) are CHO-S cells, and the method for preparing the antibody M-KF is as follows: the antibody M was identical to the antibody M-KF in terms of amino acid sequence and was expressed by the CHO cell line in which the fut8 gene was knocked out (the content of fucose in antibody M-KF was about 0%).

CTLA4 on Jurkat cells = target: T3, CTLA4 on Jurkat cells (Homo sapiens (Human), UniProt P16410 36-223); assay: flow cytometry on Jurkat-CTLA4 cells
T3 construct: also called Jurkat-CTLA4
T3 sequence: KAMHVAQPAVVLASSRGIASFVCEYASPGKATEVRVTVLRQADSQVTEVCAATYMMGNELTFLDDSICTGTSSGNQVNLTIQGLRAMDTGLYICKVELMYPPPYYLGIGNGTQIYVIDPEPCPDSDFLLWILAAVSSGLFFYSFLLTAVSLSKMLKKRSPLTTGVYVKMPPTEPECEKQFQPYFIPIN

TIM3 on Jurkat cells = target: T4, TIM3 on Jurkat cells (Homo sapiens (Human), UniProt Q8TDQ0 22-301); assay: flow cytometry on Jurkat-TIM3 cells
T4 construct: also called Jurkat-TIM3
T4 sequence: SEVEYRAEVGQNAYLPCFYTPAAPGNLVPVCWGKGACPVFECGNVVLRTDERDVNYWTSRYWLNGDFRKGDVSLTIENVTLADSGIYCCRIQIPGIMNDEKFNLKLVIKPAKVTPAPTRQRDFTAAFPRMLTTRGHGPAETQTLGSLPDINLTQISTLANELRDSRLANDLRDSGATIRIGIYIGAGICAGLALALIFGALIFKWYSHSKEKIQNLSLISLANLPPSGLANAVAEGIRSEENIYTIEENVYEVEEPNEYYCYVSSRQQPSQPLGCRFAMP

human OX40 on cells [2] = target: T1, human OX40 on cells; assay: flow cytometry on Jurkat-hOX40 cells, 3-fold dilutions from 50 nM, MFI
Procedure: Antibody-F23-4k and antibody-F23-32k, as well as two control antibodies 11D4 and OX40mAb24 at different concentrations were used to incubate Jurkat-hOX40 cells.

TIGIT on Jurkat cells = target: T5, TIGIT on Jurkat cells (Homo sapiens (Human), UniProt Q495A1 22-244); assay: flow cytometry on Jurkat-TIGIT cells
T5 construct: also called Jurkat-TIGIT
T5 sequence: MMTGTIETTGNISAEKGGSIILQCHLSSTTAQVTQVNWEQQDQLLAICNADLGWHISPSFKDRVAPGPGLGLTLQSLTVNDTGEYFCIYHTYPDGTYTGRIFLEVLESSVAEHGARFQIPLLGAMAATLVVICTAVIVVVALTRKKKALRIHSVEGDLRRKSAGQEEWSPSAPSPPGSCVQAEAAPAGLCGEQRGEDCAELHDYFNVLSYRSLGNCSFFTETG

hOX40-FC = target: T6, hOX40-FC (human, UniProt P43489 29-216); assay: BLI (ForteBio), biotinylated antibody on SA sensor, OX40-Fc 50 nM bivalent, 1:1 model
T6 construct: range 1-216; Made in HEK293; The stated range 1-216 starts at residue 1, so it holds the signal peptide of the entry; also called human OX40 extracellular region fused to human IgG1-Fc; not shown: human IgG1-Fc, UniProt P01857, residues 104 to 330
T6 sequence (looked up): T2 sequence (looked up)
Procedure: The ForteBio affinity assay was conducted according to the existing conventional method (Estep, P et al., MAbs, 2013, 5(2): 270-8). The brief process is as follows: the sensor was equilibrated offline in an assay buffer (such as PBS) for 20 min and then subjected to online test for 60 s to establish a signal baseline. The purified antibodies obtained as described above were each loaded online onto a corresponding sensor (ForteBio), and finally the ForteBio affinity assay was conducted. The biotinylated candidate antibodies were adsorbed with the SA sensor, and binding and dissociation of hOX40-FC were each detected for about 5 min. The results are shown in Table 4, and N.D indicates not detected in Table 4. Finally, kinetic analysis was performed for all by using a 1:1 binding model.

mouse OX40-his = target: T7, mouse OX40-his (mouse, UniProt P47741 20-211); assay: ELISA, 10 ng antigen coated
T7 construct: also called mOX40-his; not shown: his tag
T7 sequence (looked up): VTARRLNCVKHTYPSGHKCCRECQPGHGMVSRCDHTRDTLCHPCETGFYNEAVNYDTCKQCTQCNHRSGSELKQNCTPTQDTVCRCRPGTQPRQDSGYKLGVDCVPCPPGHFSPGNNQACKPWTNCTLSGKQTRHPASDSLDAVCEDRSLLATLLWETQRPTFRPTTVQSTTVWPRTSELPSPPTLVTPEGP
Procedure: (§1) 10 ng of mouse OX40-his (mOX40-his), hCD27-FC and hOX40-his were coated overnight at 4° C. by ELISA, washed, and then incubated with antibody-F23-32K and control antibody, and finally labeled for color developing with HRP-labeled secondary antibody.

hCD27-FC = target: T8, hCD27-FC (human, UniProt P26842 20-191, limits assumed); assay: ELISA, 10 ng antigen coated
T8 construct: not shown: Fc part
T8 sequence (looked up): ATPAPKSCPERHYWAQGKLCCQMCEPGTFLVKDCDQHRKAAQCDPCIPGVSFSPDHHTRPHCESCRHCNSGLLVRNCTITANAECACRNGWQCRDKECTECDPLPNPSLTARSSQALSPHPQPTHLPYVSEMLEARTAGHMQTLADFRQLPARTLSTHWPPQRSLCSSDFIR
Procedure: as §1

rhesus monkey OX40-his = target: T9, rhesus monkey OX40-his (rhesus monkey); assay: BLI (Fortebio), protein A sensor - antibody - OX40-his (100 nM)
T9 construct: also called Rh-OX40; Rh-OX40-his

B1: 32k-RY (antibody)
heavy: QVQLEESGGGVVQPGESLRLSCAASGFTFSSYGMHWVRQAPGKGLEWVAVISYDGSNQYYADSVKGRFTISRDNSKNTLYLQMNSLRAEDTAVYYCAKDNQDSSPDVGIDYWGQGTLVTVSS[human IgG1 constant region with E345R S440Y (EU numbers) not shown]
light: DIQMTQSPSSLSASVGDTVTITCRASQNISPFLNWYQQKPGKAPKLLIYAASSLQSGVPSRFSGSGSGTDFTLTISSLQPEDFATYYCQQYNSYPLTFGGGTKVEIKRTVAAPSVFIFPPSDEQLKSGTASVVCLLNNFYPREAKVQWKVDNALQSGNSQESVTEQDSKDSTYSLSSTLTLSKADYEKHKVYACEVTHQGLSSPVTKSFNRGEC
**Q.** B1 was tested. Which “NFκB reporter in Jurkat-hOX40-NFκB cells, fold against wild-type antibody, without protein A” value (human OX40 on cells [1]) did it give?
**A.** ~10 fold

B2: 32k-R (antibody, human IgG1, kappa)
heavy: QVQLEESGGGVVQPGESLRLSCAASGFTFSSYGMHWVRQAPGKGLEWVAVISYDGSNQYYADSVKGRFTISRDNSKNTLYLQMNSLRAEDTAVYYCAKDNQDSSPDVGIDYWGQGTLVTVSS[human IgG1 constant region with E345R (EU numbers) not shown]
light: B1 light
**Q.** How did the “NFκB reporter in Jurkat-hOX40-NFκB cells, fold against wild-type antibody, without protein A” value (human OX40 on cells [1]) turn out when B2 was run?
**A.** ~10 fold

B3: Antibody-F23-32k (antibody, human IgG1, kappa)
heavy: QVQLEESGGGVVQPGESLRLSCAASGFTFSSYGMHWVRQAPGKGLEWVAVISYDGSNQYYADSVKGRFTISRDNSKNTLYLQMNSLRAEDTAVYYCAKDNQDSSPDVGIDYWGQGTLVTVSS[human IgG1 constant region not shown]
light: B1 light
notes: also called antibody No. 6
**Q.** Which Kd (hOX40-his) does the source give for B3 here?
**A.** 11.5 nM

**Q.** What about the koff (hOX40-his) of the same binder?
**A.** 0.00965 s⁻¹

**Q.** And the kon (hOX40-his)?
**A.** 841000 M⁻¹ s⁻¹

**Q.** Does B3 bind (CTLA4 on Jurkat cells)?
**A.** no binding (tested: 100 nM)

**Q.** Does B3 bind (TIM3 on Jurkat cells)?
**A.** no binding (tested: 100 nM)

**Q.** And the EC50 (human OX40 on cells [2])?
**A.** 1 nM

**Q.** Does B3 bind (TIGIT on Jurkat cells)?
**A.** no binding (tested: 100 nM)

**Q.** And the Kd (hOX40-FC)?
**A.** 0.4 nM

**Q.** Does B3 bind (mouse OX40-his)?
**A.** no binding

**Q.** Does B3 bind (hCD27-FC)?
**A.** no binding

**Q.** What about the Kd (rhesus monkey OX40-his) of the same binder?
**A.** 9 nM
